In the supplement of paper PMC9174493:
Where a name gives a salt, the structure may show the parent alone. The list shows a part of the results. Single values of this set are uncertain. Values with irradiation are relative to irradiated vehicle.

These compounds were tested on A549-Dual (assay: NF-kB reporter (SEAP) activity, viability-corrected, relative to vehicle (fold change vs vehicle); higher = more activation of STING-IRF / NF-kB immune response reporter). Conditions: 0.3 µM; irradiation: 8 Gy/4 fr.
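Note: viability correction based on the alamar blue assay, with concentrations leaving 10% survival or less dropped.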

| Structure (SMILES) | NF-kB reporter |
| --- | --- |
| CC(=O)Nc1ccc(OC(=O)c2ccccc2OC(C)=O)cc1 [Benorylate] | 1.01 |
| Nc1ccccc1NC(=O)c1ccc(CNC(=O)OCc2cccnc2)cc1 [Entinostat (MS-275)] | 0.997 |
| COc1cc(N2CCC(N3CCN(C)CC3)CC2)ccc1Nc1ncc(Cl)c(Nc2ccccc2P(C)(C)=O)n1 | 0.819 |
| Cc1c(-c2ccc(-c3ccccc3F)cc2)nc2ccc(F)cc2c1C(=O)O [Brequinar] | 0.68 |
| CCC1/C=C(\C)CC(C)CC(OC)C2OC(O)(C(=O)C(=O)N3CCCCC3C(=O)OC(/C(C)=C/C3CCC(Cl)C(OC)C3)C(C)C(O)CC1=O)C(C)CC2OC (stereo unspecified) [Pimecrolimus] | 1.05 |
| COC(=O)/C=C/C(=O)OC [Dimethyl Fumarate] | 0.629 |
| Cc1cc(Nc2ncc(Cl)c(Nc3ccccc3S(=O)(=O)C(C)C)n2)c(OC(C)C)cc1C1CCNCC1 [Ceritinib (LDK378)] | 0.859 |
| Nc1nc(Cl)nc2c1ncn2C1CC(O)C(CO)O1 (stereo unspecified) [Cladribine] | 0.858 |
| CC12CCC(=O)C=C1CCC1C2C(O)CC2(C)C1CCC2(O)C(=O)CO (stereo unspecified) [Hydrocortisone] | 1.02 |
| Cc1coc2c1C(=O)C(=O)c1c-2ccc2c(C)cccc12 [Tanshinone I] | 1.05 |
| Cn1cnc([N+](=O)[O-])c1Sc1ncnc2nc[nH]c12 [Azathioprine] | 0.946 |
| O=c1ccc2cc3ccoc3cc2o1 [Psoralen] | 1.03 |
| CCC(=O)NS(=O)(=O)c1ccc(-c2c(-c3ccccc3)noc2C)cc1 [Parecoxib] | 1.18 |
| COc1ccc(-c2ccc3cc(C(=O)O)ccc3c2)cc1C12CC3CC(CC(C3)C1)C2 [Adapalene] | 1.22 |
| CCC(C(=O)O)c1ccc(N2Cc3ccccc3C2=O)cc1 (stereo unspecified) [Indobufen] | 1.15 |
| COC1CC2CCC(C)C(O)(O2)C(=O)C(=O)N2CCCCC2C(=O)OC(C(C)CC2CCC(O)C(OC)C2)CC(=O)C(C)/C=C(\C)C(O)C(OC)C(=O)C(C)CC(C)/C=C/C=C/C=C/1C (stereo unspecified) [Rapamycin (Sirolimus)] | 1.32 |

| Structure (SMILES) | NF-kB reporter |
| --- | --- |
| COc1ccc(C2CNC(=O)C2)cc1OC1CCCC1 (stereo unspecified) [Rolipram] | 1.23 |
| Nc1nc(N)c2nc(-c3ccccc3)c(N)nc2n1 [Triamterene] | 1.2 |
| CN(C)CCN1C(=O)c2cccc3cc(N)cc(c23)C1=O [Amonafide] | 1.61 |
| CN1CCCC1CCOC(C)(c1ccccc1)c1ccc(Cl)cc1.O=C(O)/C=C/C(=O)O (stereo unspecified) [Clemastine Fumarate] | 1.35 |
| CC12C=CC(=O)C=C1CCC1C3CC(O)C(O)(C(=O)CO)C3(C)CC(O)C12F (stereo unspecified) [Triamcinolone] | 0.846 |
| CC1CC2C3CCC4=CC(=O)C=CC4(C)C3C(=O)CC2(C)C1(O)C(=O)CO (stereo unspecified) [Meprednisone] | 1.1 |
| CCS(=O)(=O)O.COC(=O)c1ccc2c(c1)NC(=O)/C2=C(\Nc1ccc(N(C)C(=O)CN2CCN(C)CC2)cc1)c1ccccc1 [Nintedanib Ethanesulfonate Salt] | 0.979 |
| CCCCCCCCCCCCCCCCCCOP(=O)([O-])OC1CC[N+](C)(C)CC1 [Perifosine (KRX-0401)] | 0.826 |
| CCC1(O)CC2CN(CCc3c([nH]c4ccccc34)C(C(=O)OC)(c3cc4c(cc3OC)N(C=O)C3C(O)(C(=O)OC)C(OC(C)=O)C5(CC)C=CCN6CCC43C65)C2)C1 (stereo unspecified) [Vincristine] | 0.732 |
| Cl.Nc1ccn(C2OC(CO)C(O)C2O)c(=O)n1 (stereo unspecified) [Cytarabine hydrochloride] | 0.75 |
| CC(=O)OC(C)C(C)C(=O)OCC12C3CC4(C)C(=CCC5C6(C)CCC(OC7OC(C(=O)[O][Na])C(OC8OC(CO)C(O)C(O)C8O)C(O)C7OC7OCC(O)C(O)C7O)C(C)(CO)C6CCC54C)C1CC(C)(C)C(O3)C2O (stereo unspecified) [Sodium Aescinate] | 1.57 |
| CCC(=O)OC1(C(=O)SCF)C(C)CC2C3CC(F)C4=CC(=O)C=CC4(C)C3(F)C(O)CC21C (stereo unspecified) [Fluticasone propionate] | 0.858 |
| CCCCC1(COC(=O)CCC(=O)O)C(=O)N(c2ccccc2)N(c2ccccc2)C1=O [Suxibuzone] | 1.47 |
| CS(=O)(=O)Nc1cc2occ(NC=O)c(=O)c2cc1Oc1ccccc1 [Iguratimod] | 1.18 |
| COc1cc2nccc(Oc3ccc(NC(=O)Nc4cc(C)on4)c(Cl)c3)c2cc1OC [Tivozanib (AV-951)] | 0.816 |
